# Results taken from publication PMC5836133.
# The other results are listed elsewhere or left out. At the low end of the ranking the order means little.
# System: T1, GST-NbGlk1(82-244)
# T1 sequence: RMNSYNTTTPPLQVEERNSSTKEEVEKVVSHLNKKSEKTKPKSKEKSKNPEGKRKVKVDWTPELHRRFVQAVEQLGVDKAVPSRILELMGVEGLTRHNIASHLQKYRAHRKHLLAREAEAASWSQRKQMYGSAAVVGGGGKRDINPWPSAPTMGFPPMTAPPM
# Experiment: protein-binding microarray;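 further: rank-based score ranging −0.5 to +0.5 with E above 0.45 taken as significant binding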
# Details: NbGlk1 is a Golden2-like transcription factor of Nicotiana benthamiana; high values mean tight binding; most listed sequences are background and not binding sites; double strand, one strand shown
row,Sequence,binding signal
1,AGAAGAAC,-0.194 E-score
2,AGTCGCAT,-0.224 E-score
3,ACTTCGCT,0.0597 E-score
4,ACAGGGCT,-0.207 E-score
5,AACTATGC,0.0135 E-score
6,AGGTGTAA,0.106 E-score
7,AGTAGTCG,-0.149 E-score
8,AATCGACA,0.156 E-score
9,CACGGGTC,-0.246 E-score
10,ACCTGAAT,0.0675 E-score
11,CACCAAGG,-0.122 E-score
12,ATTCTTAA,0.276 E-score
13,AACCTAAA,0.0417 E-score
14,AATCTTGT,0.397 E-score
15,CAACATCA,0.0662 E-score
16,AAGCTGAC,-0.198 E-score
17,ATACATGG,-0.0664 E-score
18,AAGGTCTA,-0.159 E-score
19,AAACGTTA,-0.0102 E-score
20,AAAACATC,-0.0291 E-score
21,AAACAACT,0.116 E-score
22,CAGAGACA,-0.0839 E-score
23,ATCTTCAT,0.297 E-score
24,AACCGCCG,-0.115 E-score
25,ATGGCTTC,-0.188 E-score

row,Sequence,binding signal
1,AAGAGGAT,0.283 E-score
2,ATTTAATG,0.189 E-score
3,AATTCGGC,0.115 E-score
4,AAGAACTA,-0.0204 E-score
5,AATGAGCA,-0.0619 E-score
6,AAGGCATA,-0.117 E-score
7,AGCCAGAA,0.0031 E-score
8,AACCATAG,-0.0512 E-score
9,ACGAGTCA,0.0151 E-score
10,ATTGAAGG,-0.0492 E-score
11,CACCCCCC,-0.263 E-score
12,ATCTCTTC,0.286 E-score
13,ACGGCACC,-0.106 E-score
14,ACCGGCGT,-0.152 E-score
15,AGGTCCAC,-0.176 E-score
16,AAGAACAC,-0.0919 E-score
17,ATGTCTAA,-0.0453 E-score
18,ACAGATCG,0.272 E-score
19,ACAAGCGC,-0.129 E-score
20,ACTATTGC,0.0395 E-score
21,AGTGAATC,0.143 E-score
22,AAGACTGC,-0.12 E-score
23,AGATGACA,-0.0419 E-score
24,AAACGAAC,-0.12 E-score
25,ACCTAGAC,-0.203 E-score

row,Sequence,binding signal
1,ATATACAT,0.199 E-score
2,AGGCTTGC,-0.295 E-score
3,AGAGTCAG,-0.122 E-score
4,AATATCCG,0.426 E-score
5,AATCATCC,0.137 E-score
6,ACAGCCAT,-0.15 E-score
7,AATACCTC,-0.00669 E-score
8,ATAAAATA,0.22 E-score
9,AGAACTAC,0.00191 E-score
10,AAGTAATT,0.184 E-score
11,ATAACTGA,0.0441 E-score
12,CACTCGGA,0.0612 E-score
13,AATACTTA,0.132 E-score
14,ACGGTAAA,0.0623 E-score
15,ATGCCAGA,-0.185 E-score
16,CACCTAAG,-0.132 E-score
17,CAGCCGCA,-0.0956 E-score
18,AGCTACAA,-0.0901 E-score
19,ACCAGGCG,-0.0622 E-score
20,AAGGCGTG,-0.099 E-score
21,ACGTGTCG,-0.122 E-score
22,ACGGTCAC,-0.152 E-score
23,AACAATGG,0.07 E-score
24,AGTCGAGA,0.0423 E-score
25,ATGGGCAA,-0.063 E-score

row,Sequence,binding signal
1,ACCCTTCT,-0.202 E-score
2,ATCGTACG,0.122 E-score
3,ATCCGTGG,0.0679 E-score
4,ACCGTTTC,-0.266 E-score
5,CAAAGCTA,-0.0958 E-score
6,AGATTGCG,0.494 E-score
7,ACCTGTGA,-0.12 E-score
8,ACCTAATG,0.0883 E-score
9,ATTTTACA,0.27 E-score
10,AATATTCT,0.313 E-score
11,AGCAGACG,-0.0935 E-score
12,AAAGTCGG,-0.148 E-score
13,AGCATTGG,-0.187 E-score
14,AACCCCCA,-0.321 E-score
15,ACTTTCAG,-0.0802 E-score
16,ATAACGCA,0.2 E-score
17,ACCGCGCG,-0.00863 E-score
18,AGCTAGCT,-0.272 E-score
19,AGTCTATC,-0.141 E-score
20,AAACAACA,-0.00475 E-score
21,AATTTGCA,0.179 E-score
22,ACGCACTG,-0.0776 E-score
23,AGGGCCGA,-0.121 E-score
24,ACGTTCAG,-0.213 E-score
25,AAGCCCCA,-0.328 E-score

row,Sequence,binding signal
1,ACGTGCTG,-0.174 E-score
2,ATTAAGCA,0.0234 E-score
3,AACTGTCG,-0.16 E-score
4,AAATTGGT,0.0668 E-score
5,CACAGAGG,-0.191 E-score
6,ACTAACTC,0.0143 E-score
7,AAAAAGAA,0.165 E-score
8,ATTGCAAT,0.305 E-score
9,ACTGGGAG,-0.223 E-score
10,AAAAGGTA,0.0447 E-score
11,ATTATCCG,0.279 E-score
12,AAAGACTT,-0.0547 E-score
13,CAAAAACC,0.0175 E-score
14,ATTAGAAA,0.131 E-score
15,ATAGAATA,0.193 E-score
16,AGGTGGCG,-0.119 E-score
17,AGGGCTCG,-0.334 E-score
18,ATACCCCG,0.0336 E-score
19,CAGATGGA,-0.0656 E-score
20,AACAGCTG,-0.167 E-score
21,AAAACTGT,-0.0505 E-score
22,AAGCGCAT,-0.0879 E-score
23,ATCGGGTA,0.159 E-score
24,AATCTCAG,0.428 E-score
25,AGATTTCC,0.497 E-score

row,Sequence,binding signal
1,ATCCCTGA,0.0932 E-score
2,CAATGACC,-0.187 E-score
3,ATAAACCC,-0.133 E-score
4,AGAGGGAA,-0.131 E-score
5,ACGCATCC,-0.0246 E-score
6,AAATCGGT,0.325 E-score
7,AAAATGGC,-0.0933 E-score
8,AGAATGCA,0.0239 E-score
9,ATCTTCGA,0.318 E-score
10,ACGGCGGC,-0.24 E-score
11,ACCGGGTA,-0.104 E-score
12,CACCTCCA,-0.163 E-score
13,ATTGGGCA,-0.131 E-score
14,AGGTAGAG,-0.152 E-score
15,AACCTACC,-0.167 E-score
16,AGCTTCTG,-0.169 E-score
17,ATTAACTG,0.0227 E-score
18,ACTTCAAC,-0.0337 E-score
19,CAACTCCA,-0.0884 E-score
20,ACCAATGG,-0.137 E-score
21,AAGATGAG,-0.0363 E-score
22,AGAATAAT,0.206 E-score
23,AGCCTACC,-0.0787 E-score
24,AATTCTAG,0.0563 E-score
25,ACAGTTAA,0.107 E-score

row,Sequence,binding signal
1,CAAAGCAC,-0.0496 E-score
2,AGCGATGG,-0.264 E-score
3,ACTAGCTG,-0.22 E-score
4,AGTCGATC,-0.0175 E-score
5,CACCGTCA,-0.0843 E-score
6,AGCGCGGG,-0.281 E-score
7,AGCACTGG,-0.182 E-score
8,ATCCCTCA,0.207 E-score
9,ATCTTAAC,0.317 E-score
10,ACTATTAC,0.0883 E-score
11,AAACTGTG,0.015 E-score
12,AGTATGGA,-0.0481 E-score
13,CACGCCGC,-0.279 E-score
14,ACTAGATA,0.267 E-score
15,ATGGTTGA,-0.0524 E-score
16,AAATTCAC,0.0254 E-score
17,AGGCGACA,-0.0583 E-score
18,AATCCACC,0.382 E-score
19,AAGATCCA,0.24 E-score
20,ATTATTCC,0.252 E-score
21,AGACATTG,-0.0164 E-score
22,ATGCTTTA,-0.074 E-score
